Reference: the supplement of paper PMC12355420
Structures can show the parent of a compound that is named as a salt. This is one part of the list. Rule as the data show it: active = 0.5 or less and inactive = the rest. Single values are uncertain, as repeats are few or missing.

tested on: HeLa VPS33A R498W KI + HA-SDC1-FLAG; test: relative GAG core protein HA-SDC1 amount per cell number vs DMSO (fraction of DMSO); HeLa model of a glycosaminoglycan (GAG) storage disease; KI is knock-in and KO knock-out; SDC1 is syndecan 1; higher = more SDC1 (GAG core protein); settings: 50 µM; 24 h
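Also: HA-SDC1 level read out by In-Cell Western staining with an anti-HA antibody against the N-terminal tag, screening FDA-approved library drugs.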

Row | Structure (SMILES) | relative GAG core protein HA-SDC1 amount per cell number
1 | CC[C@H](C)[C@@H]1NC(=O)[C@H](Cc2ccc(OC)cc2)NC(=O)CCCSC[C@@H](C(=O)N2CCC[C@H]2C(=O)N[C@@H](CC(C)C)C(=O)NCC(N)=O)NC(=O)[C@H](CC(N)=O)NC(=O)[C@H](CCC(N)=O)NC1=O [Carbetocin] | inactive: 0.934
2 | NC(CO)C(=O)NNCc1ccc(O)c(O)c1O (stereo not drawn) [Benserazide HCl] | inactive: 0.606
3 | CC1(C)S[C@@H]2[C@H](NC(=O)[C@H](N)c3ccc(O)cc3)C(=O)N2[C@H]1C(=O)O [Amoxicillin] | inactive: 1.16
4 | O=C(NC[C@H]1CN(c2ccc(N3CCOCC3=O)cc2)C(=O)O1)c1ccc(Cl)s1 [Rivaroxaban] | inactive: 1.04
5 | C[C@H](CCC(=O)O)[C@H]1CC[C@H]2[C@@H]3[C@@H](O)C[C@@H]4C[C@H](O)CC[C@]4(C)[C@H]3CC[C@]12C [Ursodiol] | inactive: 0.852
6 | C[C@H]1Oc2cc(cnc2N)-c2c(nn(C)c2C#N)CN(C)C(=O)c2ccc(F)cc21 | active: 0.477
7 | N[C@@H](CS)C(=O)O | inactive: 1.4
8 | COc1ccc2[nH]c([S@@+]([O-])Cc3ncc(C)c(OC)c3C)nc2c1 [Esomeprazole Sodium] | inactive: 0.844
9 | OCCN1C[C@H](O)[C@@H](O)[C@H](O)[C@H]1CO [Miglitol] | inactive: 0.908
10 | C[C@H](CCC(=O)NCCS(=O)(=O)O)[C@H]1CC[C@H]2[C@@H]3[C@@H](O)C[C@@H]4C[C@H](O)CC[C@]4(C)[C@H]3CC[C@]12C [Sodium Tauroursodeoxycholate (TUDC)] | inactive: 1.04
11 | Cc1cn([C@H]2C[C@H](N=[N+]=[N-])[C@@H](CO)O2)c(=O)[nH]c1=O [Zidovudine] | inactive: 0.893
12 | Cc1cn(-c2cc(NC(=O)c3ccc(C)c(Nc4nccc(-c5cccnc5)n4)c3)cc(C(F)(F)F)c2)cn1 [Nilotinib(AMN-107)] | inactive: 1.56
13 | CCOC(=O)c1ccc(OC(=O)CCCCCNC(=N)N)cc1 [Gabexate mesylate] | inactive: 0.944
14 | NNc1nncc2ccccc12 [Hydralazine HCl] | inactive: 0.799
15 | O=C(O)/C=C/c1ccc(Cn2ccnc2)cc1 [Ozagrel HCl] | inactive: 0.89
16 | C[C@H]1O[C@H](O[C@H]2[C@H](O)[C@@H](O)[C@@H](O[C@@H]([C@H](O)[C@@H](O)C=O)[C@H](O)CO)O[C@@H]2CO)[C@H](O)[C@@H](O)[C@@H]1N[C@H]1C=C(CO)[C@@H](O)[C@H](O)[C@H]1O [Acarbose] | inactive: 1.48
17 | C#C[C@]1(O)CC[C@H]2[C@@H]3CCC4=CC(=O)CC[C@@H]4[C@H]3CC[C@@]21CC [Levonorgestrel] | inactive: 0.814
18 | CN(C)/N=N/c1[nH]cnc1C(N)=O [Dacarbazine] | inactive: 0.671
